For test [1], the system named is HSkMC (human skeletal muscle cells). Kind of test: cytotoxicity call (relative viability < 0.9). Conditions: 10 µM.
Test [2] deals with HepG2. Kind of test: cytotoxicity call (relative viability < 0.9). As to conditions: 10 µM.
Test [3] deals with S. aureus RN4220. Kind of test: growth inhibition call (relative growth <= 0.2). Conditions: 50 µM.

The list shows a part of the results.

On to `CO/N=C(\C(=O)N[C@@H]1C(=O)N2C(C(=O)O)=C(C)CS[C@H]12)c1csc(N)n1`, for which the cytotoxicity call in test [1] and in test [2] was “inactive” throughout. Also, the growth inhibition call in test [3] is “active”.
Consider `O=C(CN1CCOCC1)N[C@@H]1CC[C@@H](CCNC(=O)Nc2cc(F)ccc2F)O[C@H]1CO`, for which the cytotoxicity call in test [1] and in test [2] was “inactive” each time. Moreover, in test [3], the growth inhibition call was “inactive”.
As for `CO[C@@H](C(=O)N(C)C[C@@H]1OCc2ccccc2-c2c(n(C)c3ccccc23)C(=O)N([C@H](C)CO)C[C@@H]1C)c1ccccc1`, the cytotoxicity call in test [1] and in test [2] was “inactive” in each case. Besides, in test [3], the growth inhibition call was “inactive”.
Take `C[C@@H]1CN([C@H](C)CO)C(=O)Cc2cc(NC(=O)NC3CCCCC3)ccc2O[C@H]1CN(C)C(=O)Nc1ccc(C(F)(F)F)cc1`: the cytotoxicity call in test [1] and in test [2] was “inactive” throughout. The growth inhibition call in test [3] is “inactive”.
As to `C[C@@H]1CN([C@@H](C)CO)C(=O)CCCn2nncc2CO[C@@H]1CN(C)C(=O)c1ccc(N2CCN(C)CC2)cc1`, the cytotoxicity call in test [1] and in test [2] was “inactive” each time. In test [3], the growth inhibition call was “inactive”.
In the case of `Cc1cc(C(=O)N2CC[C@@]2(C)C(=O)NS(=O)(=O)c2ccc(C#N)cc2)nn1C`, the cytotoxicity call in test [1] and in test [2] was “inactive” each time. The growth inhibition call in test [3] is “inactive”.
In the case of `C[C@@H]1CCCCO[C@@H](CN(C)C(=O)Nc2cccc3ccccc23)[C@@H](C)CN([C@@H](C)CO)C(=O)c2cc(NC(=O)Nc3ccc(C(F)(F)F)cc3)ccc2O1`, the cytotoxicity call in test [1] is “active”. Also, the cytotoxicity call in test [2] was “inactive”. Further, the growth inhibition call in test [3] was “inactive”.
Consider `C[C@@H]1CCCCO[C@H](CN(C)S(=O)(=O)c2ccccc2)[C@@H](C)CN([C@@H](C)CO)C(=O)c2cc(NC(=O)Nc3ccccc3)ccc2O1`, for which the cytotoxicity call in test [1] and in test [2] was “inactive” in each case. Besides, the growth inhibition call in test [3] is “inactive”.
With `Cc1noc(C)c1S(=O)(=O)Nc1ccc2c(c1)CC(=O)N([C@@H](C)CO)C[C@@H](C)[C@@H](CN(C)S(=O)(=O)c1c(C)noc1C)O2`, the cytotoxicity call in test [1] and in test [2] was “inactive” throughout. Also, in test [3], the growth inhibition call was “inactive”.
Regarding `C#CC1(O)CCC2C3CCC4=CC(=O)CCC4C3CCC21C` (configuration not stated), the cytotoxicity call in test [1] and in test [2] was “inactive” each time. The growth inhibition call in test [3] was “inactive”.
Consider `C[C@@H]1CN([C@H](C)CO)C(=O)c2cccc(NC(=O)C3CC3)c2O[C@@H]1CN(C)S(=O)(=O)c1ccccc1`, for which the cytotoxicity call in test [1] and in test [2] was “inactive” throughout. The growth inhibition call in test [3] is “inactive”.
For `Cc1ccc(S(=O)(=O)N(C)C[C@H]2Oc3c(NS(=O)(=O)c4ccccc4)cccc3C(=O)N([C@H](C)CO)C[C@H]2C)cc1`, the cytotoxicity call in test [1] and in test [2] was “inactive” in each case. In test [3], the growth inhibition call is “inactive”.
In the case of `C[C@@H]1CCCCO[C@@H](CN(C)Cc2ccccc2)[C@H](C)CN([C@@H](C)CO)C(=O)c2cc(NS(=O)(=O)c3ccccc3)ccc2O1`, the cytotoxicity call in test [1] and in test [2] was “inactive” each time. For the same molecule, in test [3], the growth inhibition call was “inactive”.
In the case of `Cc1noc(C)c1NC(=O)N(C)C[C@H]1Oc2ccc(NS(=O)(=O)c3c(C)noc3C)cc2C(=O)N([C@@H](C)CO)C[C@H]1C`, the cytotoxicity call in test [1] and in test [2] was “inactive” throughout. Besides, the growth inhibition call in test [3] is “inactive”.
As to `S=C1C=C(N2CCCCC2)C[C@H](c2ccc(Cl)cc2)S1`, the cytotoxicity call in test [1] and in test [2] was “inactive” throughout. The growth inhibition call in test [3] is “inactive”.
On to `C[C@H]1CCCCO[C@@H](CN(C)C(=O)Nc2ccc(C(F)(F)F)cc2)[C@@H](C)CN([C@@H](C)CO)C(=O)c2cc(NC(=O)Cc3ccccc3)ccc2O1`, for which the cytotoxicity call in test [1] and in test [2] was “inactive” in each case. Besides, the growth inhibition call in test [3] was “inactive”.
With `C[C@H]1CN([C@@H](C)CO)C(=O)c2cc(C#CCN(C)C)cnc2O[C@@H]1CN(C)Cc1cccc(C(=O)O)c1`, the cytotoxicity call in test [1] and in test [2] was “inactive” throughout. Further, the growth inhibition call in test [3] is “inactive”.
As for `CN1C(=O)c2cc(NC(=O)C3CCCC3)ccc2OC[C@H]2O[C@@H](CC(=O)NCCc3ccncc3)CC[C@H]21`, the cytotoxicity call in test [1] and in test [2] was “inactive” throughout. Also, the growth inhibition call in test [3] was “inactive”.
`Nc1cc[nH]c(=O)n1`: the cytotoxicity call in test [1] and in test [2] was “inactive” each time. Further, the growth inhibition call in test [3] is “inactive”.
For the molecule `C[C@@H]1CN([C@@H](C)CO)S(=O)(=O)c2ccc(C#CC3CCCC3)cc2O[C@@H]1CN(C)Cc1cncnc1`, the cytotoxicity call in test [1] and in test [2] was “inactive” throughout. The growth inhibition call in test [3] was “inactive”.
As to `CCS(=O)(=O)Nc1ccc2c(c1)C(=O)N(C)[C@H]1CC[C@H](CC(=O)NCCCN3CCOCC3)O[C@H]1CO2`, the cytotoxicity call in test [1] and in test [2] was “inactive” in each case. Besides, in test [3], the growth inhibition call is “inactive”.
With `CCCCS(=N)(=O)CC[C@@H](N)C(=O)O` (some centres not stated), the cytotoxicity call in test [1] and in test [2] was “inactive” in each case. Also, the growth inhibition call in test [3] was “inactive”.
As for `COC[C@H]1CN(C)N=C(C2CC2)O1`, the cytotoxicity call in test [1] and in test [2] was “inactive” throughout. In addition, in test [3], the growth inhibition call is “inactive”.
Consider `CCC1OC(=O)C(C)C(=O)C(C)C(OC2OC(C)CC(N(C)C)C2O)C(C)(OC)CC(C)C(=O)C(C)C2N(CCCCn3cnc(-c4cccnc4)c3)C(=O)OC12C` (configuration not stated), for which the cytotoxicity call in test [1] and in test [2] was “inactive” in each case. Moreover, in test [3], the growth inhibition call was “active”.
In the case of `C[C@@H]1CN([C@H](C)CO)S(=O)(=O)c2ccc(Br)cc2O[C@@H]1CN(C)C(=O)C1CCCCC1`, the cytotoxicity call in test [1] and in test [2] was “inactive” throughout. Also, the growth inhibition call in test [3] is “inactive”.
In the case of `COc1ccc(NC(=O)N(C)C[C@H]2OCCCC[C@@H](C)Oc3ccc(NS(=O)(=O)c4ccc(F)cc4)cc3C(=O)N([C@@H](C)CO)C[C@H]2C)cc1`, the cytotoxicity call in test [1] and in test [2] was “inactive” throughout. In test [3], the growth inhibition call was “inactive”.
For the molecule `CN(C)C(=N)N=C(N)N`, the cytotoxicity call in test [1] and in test [2] was “inactive” throughout. Further, the growth inhibition call in test [3] was “inactive”.
For `Cc1noc(C)c1S(=O)(=O)Nc1ccc2c(c1)C(=O)N([C@@H](C)CO)C[C@H](C)[C@H](CN(C)C(=O)Nc1cccc3ccccc13)OCCCC[C@H](C)O2`, the cytotoxicity call in test [1] and in test [2] was “inactive” throughout. In test [3], the growth inhibition call was “inactive”.
As for `C[C@@H]1CN([C@@H](C)CO)C(=O)Cc2cc(NC(=O)Nc3cccc4ccccc34)ccc2O[C@@H]1CN(C)Cc1ccccc1`, in test [1], the cytotoxicity call is “inactive”. In addition, in test [2], the cytotoxicity call was “active”. For the same molecule, the growth inhibition call in test [3] was “inactive”.

These data come from the antibiotic and cytotoxicity screens of Wong et al. (2023).
